Data from PubChem BioAssay AID1458 (National Center for Advancing Translational Sciences (NCATS), 2008).
About 5,900 (2.8%) of roughly 210,000 compounds were called active. The inconclusive results got no clear call from the source; some entries with a clear call stand among them for comparison. Calls follow the shape of the dose curve; as a rule, active = well fitted activation curve with a large enough effect; inconclusive = small, poorly fitted or top-dose-only effect; inactive = no such curve, though single readings can be large or run the other way. Potencies beside an inconclusive call are fits to weak or partial responses and may not hold up.

assay: qHTS Assay for Enhancers of SMN2 Splice Variant Expression; settings: HEK293 SMN2-luciferase splicing reporter, luminescence, 30-36 h; activity change, positive = activation: at 46.1 µM (top of the series); also: nearly all actives have a fitted effect of over 55% in size; as to activity change, positive = activation: % of control where 0% means no effect
Summary of the method: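 HEK293 cells carry an SMN2 minigene-luciferase reporter in which exon 7 inclusion puts luciferase in frame. Cells were seeded at 2000 cells/well, attached for 10-12 hours, then exposed to compounds for 30-36 hours at 37C before ONE-Glo luminescence.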
Potency is read from the fitted curve at half-maximal effect; tags tell the direction and shape of the fitted curve.

Compound | Potency | activity change, positive = activation
Cc1nnc(SCc2ccc(F)cc2Cl)s1 | inconclusive: 11.2 µM [activator, partial curve, poor fit] | –
CCOC(=O)c1c(NC(=O)COc2cccc(C)c2C)sc(C(C)=O)c1C | inconclusive: 0.004 µM [activator, full curve, poor fit] | –
CC1CCN(S(=O)(=O)c2ccc(NC(=O)CN3CCN(C)CC3)cc2)CC1 | – | inactive: -14.6%
Cc1cc(OCCN2CCCCC2)nc2ccccc12 | – | inactive: 8.11%
Cc1cccc2cc(CN(CCCO)C(=O)Nc3cccc(Cl)c3)c(=O)[nH]c12 | – | inactive: -15.7%
O=C(CSc1nc(C2CC2)nc2sc3c(c12)CCCC3)NCc1ccco1 | inconclusive: 3.98 µM [activator, single point] | –
O=C(Nc1ccccc1F)C(=O)c1cn(CC(=O)N2CCCCC2)c2ccccc12 | inconclusive: 35.5 µM [activator, single point] | –
COC(=O)C(Cc1ccc(O)cc1)NC(=O)c1ccccc1OC (stereo not given) | inconclusive: 10 µM [activator, partial curve] | –
COc1ccc(C)cc1NC(=O)Cn1cnc2sc(C)c(S(=O)(=O)N3CCOCC3)c2c1=O | inconclusive: 11.2 µM [activator, single point] | –
Cn1c(NCc2ccco2)nc2ccccc21 | inconclusive: 5.62 µM [activator, partial curve, poor fit] | –
N#C/C(=C(/O)COC(=O)CCc1ccc(S(=O)(=O)N2CCOCC2)cc1)c1nc2ccccc2[nH]1 | inconclusive: 2 µM [activator, partial curve] | –
COC(=O)c1sccc1NC(=O)c1cc(-c2ccc(C)cc2C)nc2ccccc12 | – | inactive: -29%
CCOC(=O)c1nn(-c2ccc(Br)cc2)cc1C(=O)c1cccc2ccccc12 | inconclusive: 31.6 µM [activator, single point] | –
CCCCCCn1c(-c2ccco2)nc2oc3cc(OC)ccc3c(=O)c2c1=O | inconclusive: 5.62 µM [activator, single point] | –
COc1ccc(-c2nnc(NC(=O)C3=COCCO3)o2)cc1 | inconclusive: 5.62 µM [activator, partial curve] | –
Cc1csc(NC(=O)c2cc(C)nc3ccccc23)n1 | – | inactive: -0.926%
O=c1c2ccccc2[nH]c(=S)n1CCCN1CCOCC1 | – | inactive: -0.24%
O=C1C2CCCN2C(c2ccccc2F)N1c1ccc(F)cc1 (stereo not given) | inconclusive: 14.1 µM [activator, single point] | –
Clc1ccccc1-c1nnc2sc(-c3ccc4c(c3)OCO4)nn12 | inconclusive: 35.5 µM [activator, single point] | –
CC1(C)C(=O)C=C[C@@]2(C)C1C=C[C@@]1(C)C2CC[C@@]2(C)C(c3ccoc3)OC(=O)C3OC312 (stereo not given in full) | – | inactive: -118%
N#C/C(C(=O)N1CCCCC1)=C1\Nc2ccccc2S1 | active: 17.8 µM | –
Cc1ccc(Cl)cc1N1CCN(C(=O)C2CCC(CNS(=O)(=O)c3cccs3)CC2)CC1 (stereo not given) | – | inactive: -13.3%
CCCCc1ccc(NC(=O)c2cnccn2)cc1 | active: 3.16 µM | –

Compound | Potency | activity change, positive = activation
CCSC1(SCC)N=C(N)C2(C#N)C(c3ccccc3)NC(C)=CC12C#N (stereo not given) | inconclusive: 11.2 µM [activator, partial curve, poor fit] | –
CC(CC(=O)c1cccs1)CC(=O)c1cccs1 | inconclusive: 15.8 µM [activator, single point] | –
O=C(Cn1nc(-c2ccccc2)nc1-c1ccccc1)N1CCOCC1 | – | inactive: -5.39%
C[C@@H](C1[C@@H](O)CC2C3C=CC4C[C@@H](O)CC[C@]4(C)[C@H]3CC[C@@]21C)[C@@H]1CCCCN1 (stereo not given in full) | – | inactive: 10.1%
CS(=O)(=O)N1CCc2cc(C(=O)N3CCCCC3)ccc21 | – | inactive: -9.79%
COC(=O)c1ccc(C(NC(=O)OCc2ccccc2)/C(=C/[C@@H](C)C(=O)NCc2ccccc2)c2cccnc2)cc1 (stereo not given in full) | – | inactive: 7.06%
COc1cc(NC(=O)/C=C/c2ccccc2[N+](=O)[O-])cc(OC)c1 | inconclusive: 14.1 µM [activator, single point] | –
FC(F)(F)c1cnc2c(-c3ccccc3)n[nH]c2c1 | inconclusive: 31.6 µM [activator, single point] | –
CSc1ccc(/C=C/C(=O)NC(=O)c2ccccc2O)cc1 | active: 25.1 µM | –
Fc1ccc(CSc2nnc(-c3cccs3)o2)cc1 | inconclusive: 17.8 µM [activator, partial curve, poor fit] | –
CCCCC(=O)NC1(C(F)(F)F)C(=O)N(CC(C)C)C2=C1C(=O)CC(C)(C)C2 (stereo not given) | – | inactive: -13.4%
N#CC1=C(N)Oc2n[nH]c(-c3cccnc3)c2C1c1cc(F)ccc1F (stereo not given) | inconclusive: 5.62 µM [activator, single point] | –
CCOc1ccc(NC(=O)Nc2cc(C)ccc2OC)cc1 | inconclusive: 15.8 µM [activator, single point] | –
COc1ccc(NC2CCN(C3CC(=O)N(c4ccc(F)c(Cl)c4)C3=O)CC2)cc1 (stereo not given) | inconclusive: 2 µM [activator, full curve, poor fit] | –
CCC(=O)Nc1cccc(NC(=S)NC(=O)c2ccc(Cl)cc2)c1 | inconclusive: 11.2 µM [activator, partial curve] | –
Cc1nnc(SCc2nc3ccccc3[nH]2)s1 | – | inactive: 9.33%
CCOC(=O)c1ccc(NC(=O)CSc2nnc(NC(=O)c3ccc(S(=O)(=O)N4CCOCC4)cc3)s2)cc1 | inconclusive: 28.2 µM [activator, single point] | –
CCOC(=O)C1=C(N)Oc2c(oc(CO)cc2=O)C1c1c(F)cccc1Cl (stereo not given) | inconclusive: 35.5 µM [activator, partial curve] | –
Cc1ccc(CC(=O)Nc2cccc(C)n2)cc1 | active: 12.6 µM | –
COCC(=O)n1nc(-c2ccco2)nc1NCc1ccccc1Cl | inconclusive: 8.91 µM [activator, partial curve, poor fit] | –
O=C(NC1CCC(O)CC1)c1ccc(S(=O)(=O)NCc2ccco2)cc1 (stereo not given) | – | inactive: 13%
COc1ccc(CCNC(=O)c2ccc3c(c2)N(Cc2ccc(F)cc2)C(=O)c2ccccc2S3(=O)=O)cc1OC | inconclusive: 31.6 µM [activator, single point] | –
